# Measured values as given in PubChem BioAssay AID686978 (National Center for Advancing Translational Sciences (NCATS), 2013).
# Among all 420,000 compounds or so, about 64,000 (15%) were called active. The inconclusive results got no clear call from the source; some entries with a clear call stand among them for comparison. Calls come from the whole dose curve; as a rule, active = well fitted inhibition curve with a large enough effect; inconclusive = small, poorly fitted or top-dose-only effect; inactive = flat fitted curve, though single readings scatter. No potency is given beside an inconclusive call; the fits are too rough.
# Experiment: qHTS for Inhibitors of human tyrosyl-DNA phosphodiesterase 1 (TDP1): qHTS in cells in absence of CPT; note: nearly all actives have a fitted effect of over 55% in size
# Conditions: DT40 Tdp1-/- hTDP1 cells, no CPT, ATP luminescence, 48 h; activity change, negative = growth inhibition: at 46.2 µM (top of the series) unless noted
# In short: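 Growth kinetics read by CellTiter-Glo luminescence after ≥48 hr at 37 °C. Cells: DT40 Tdp1-/- stably carrying human TDP1, 400 per well, compound exposure in the absence of CPT (DMSO vehicle).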
# % is set by controls: 0 for no effect and ±100 for the full control effect; potency is the fitted concentration of half-maximal effect; tags give direction and shape of the fitted curve.
SMILES,Potency,"activity change, negative = growth inhibition"
COC(=O)CC1=C(C(=O)OC)C(c2ccc3c(c2)OCO3)C(C#N)=C(N)O1 (stereo not drawn),"inconclusive [inhibitor, full curve]",–
CCC/C(=N/Nc1ccc(Cl)cc1)c1cnnc(-c2ccccc2)n1,"inconclusive [inhibitor, full curve]",–
O=C(Nc1cccc(S(=O)(=O)N2CCCCC2)c1)C1CCCN1S(=O)(=O)c1ccccc1F (stereo not drawn),"inconclusive [inhibitor, single point]",–
CCn1ncc(C2C(C(=O)Nc3ccc(C)cn3)=C(C)NC3=C2C(=O)CCC3)c1C (stereo not drawn),–,inactive: 0.837%
N#Cc1ccc(CN2CCCC3(CCN(C(=O)c4cc(C(F)(F)F)cc(C(F)(F)F)c4)CC3)C2)cc1,"inconclusive [inhibitor, single point]",–
CN(C)S(=O)(=O)n1cc(/C=C(\NC(=O)c2ccccc2F)C(=O)N2CCOCC2)c2ccccc21,"inconclusive [inhibitor, single point]",–
Cc1ccc(Cl)cc1NC(=O)C(NS(=O)(=O)c1cccc2nsnc12)c1ccccc1 (stereo not drawn),"inconclusive [inhibitor, single point]",–
Cc1ccc(S(=O)(=O)c2nc(NCCN(C)C)sc2Cl)cc1,"inconclusive [inhibitor, partial curve, poor fit]",–
Cc1cc(C(=O)CN2C(=O)NC3(CCCCC3)C2=O)c(C)n1Cc1ccc2c(c1)OCO2,active: 23.1 µM,–
C/C(CCc1oc2ccc(Cl)cc2c1-c1ccc(C)o1)=N\O,"inconclusive [inhibitor, single point]",–
CCOc1ccccc1N(C(=O)c1snc(C(N)=O)c1N)C(C(=O)NCc1ccccc1)c1ccc(O)cc1 (stereo not drawn),"inconclusive [inhibitor, single point]",–
CC(=O)c1ccc(N2CCN(S(=O)(=O)c3ccc4c(c3)NC(=O)CC(=O)N4)CC2)cc1,"inconclusive [inhibitor, single point]",–
CCN(CCc1ccccc1)c1ccc2c(c1)C1CC2CCN1C(=O)OCc1ccccc1 (stereo not drawn),"inconclusive [inhibitor, single point]",–
O=C(CSc1nc2ccccc2n1S(=O)(=O)c1cccc([N+](=O)[O-])c1)NCCc1ccccc1,"inconclusive [inhibitor, single point]",–
Cc1[nH]c2ccccc2c1C(C[N+](=O)[O-])c1cccs1 (stereo not drawn),"inconclusive [inhibitor, single point]",–
O=C(CCc1nc(-c2ccccc2Cl)no1)NC1CCCC1,"inconclusive [inhibitor, single point]",–
Cc1ccc(OCC(=O)NCC2CCCO2)c(C)c1 (stereo not drawn),–,inactive: -13.7%
C/C(=N\Nc1cccc2cccnc12)c1ccccn1,active: 0.92 µM,–
O=C(N/N=C/c1ccc2c(c1)OCO2)c1cccs1,"inconclusive [inhibitor, single point]",–
Cc1ccc(C(=O)CSC2=NC(N)=C(C#N)C3(CCCCC3)C2C(N)=O)cc1 (stereo not drawn),–,inactive: -109%
CC(=O)N1CCC(=NNC(=O)c2cc3ccccc3cc2O)CC1,"inconclusive [inhibitor, single point]",–
COc1cc(C2c3c(oc4ccccc4c3=O)C(=O)N2c2nc(C)c(C)s2)ccc1O (stereo not drawn),"inconclusive [inhibitor, single point]",–
Cc1[nH]n(-c2ccc([N+](=O)[O-])cc2)c(=O)c1C=NCCc1c(C)[nH]c2ccccc12,active: 16.4 µM,–

SMILES,Potency,"activity change, negative = growth inhibition"
CCCCCCNC(=O)C(C(=O)OCC)C1CCCCC1 (stereo not drawn),"inconclusive [inhibitor, partial curve, poor fit]",–
O=C1C=C(NCc2ccc(Cl)cc2)CC(c2ccco2)C1 (stereo not drawn),"inconclusive [inhibitor, single point]",–
NC(=O)C1Cc2ccccc2CN1C(=O)c1cccc(Oc2ccccc2)c1 (stereo not drawn),"inconclusive [inhibitor, partial curve]",–
CC(=O)c1cc(-c2ccc(F)cc2)n(CC(=O)NC(C)c2ccccc2)c1C (stereo not drawn),"inconclusive [inhibitor, partial curve]",–
O=C(Nc1cccc(F)c1)c1cccc(S(=O)(=O)N2CCOCC2)c1,"inconclusive [inhibitor, partial curve, poor fit]",–
Cc1ccccc1NC(=O)Nc1ccc2nc(N3CCN(C)CC3)cc(C)c2c1,"inconclusive [inhibitor, single point]",–
CN(CC(=O)Nc1ccc(S(=O)(=O)N2CCCC2)cc1)Cc1cccc(Cl)c1Cl,"inconclusive [inhibitor, single point]",–
CCOC(=O)C1CCCN(C(=O)c2cccc(C(F)(F)F)c2)CC1 (stereo not drawn),–,inactive: -27.6%
COc1ccc(C2=NS(=O)(=O)N(C)C(C(=O)Nc3ccc(F)cc3F)=C2)cc1,"inconclusive [inhibitor, single point]",–
Cc1cccc(-c2cc(NC=O)c3ncc(-c4cccc(C(=O)N(C)C)c4)n3c2)c1,active: 16.4 µM,–
O=C(c1cc2nc(-c3ccco3)cc(C(F)(F)F)n2n1)N1CCN(Cc2ccccc2)CC1,"inconclusive [inhibitor, single point]",–
CC(C)(C)NC(=S)NC(=O)C12CC3CCC(CC(C3)C1)C2,"inconclusive [inhibitor, single point]",–
O=C(Cc1ccc(Cl)cc1)Nc1ccccc1N1CCOCC1,active: 16.4 µM,–
O=C(Nc1nonc1NC(=O)c1cccs1)c1cccs1,active: 23.1 µM,–
Cc1cc(C)n(-c2nnc(Nc3ccc(C(C)C)cc3)c3ccccc23)n1,"inconclusive [inhibitor, single point]",–
CC(=O)N1CCOc2ccc(S(=O)(=O)NCCc3ccc(C)cc3)cc21,"inconclusive [inhibitor, partial curve]",–
COC(=O)c1cc(C(=O)OC)n(Cc2ccc(F)cc2)c1C,"inconclusive [inhibitor, single point]",–
CC[C@@]12C(=O)N(c3ccc(OC)cc3)C(=O)N1[C@H](c1ccc(Cl)cc1)[C@@H]1C(=O)N(C3CCCCC3)C(=O)[C@@H]12,"inconclusive [inhibitor, single point]",–
COc1ccc(C(=O)N2CCN(C(=O)C3COc4ccccc4O3)CC2)cc1 (stereo not drawn),"inconclusive [inhibitor, single point]",–
O=c1c2ccccc2nc(/C=C/c2ccc(O)cc2)n1CCc1ccccc1,active: 8.2 µM,–
Clc1ccc(CON/C=N/c2ncnc3sccc23)cc1,active: 11.6 µM,–
COc1ccc(N2C(=S)NC3CS(=O)(=O)CC32)cc1 (stereo not drawn),–,inconclusive: -30.3% [inhibitor]
CC(=O)c1ccc(NC(=O)C2=CC(c3cccs3)=NS(=O)(=O)N2C)cc1,active: 16.4 µM,–

SMILES,Potency,"activity change, negative = growth inhibition"
O=C(O)[C@@H](O)c1ccccc1,–,inactive: -6.47%
Cc1cccc(/C=N/Nc2cc(N3CCOCC3)nc(N3CCOCC3)n2)c1,active: 16.4 µM,–
O=C(CSc1ccccn1)Nc1ccc2c(c1)OCCO2,–,inactive: -27.1%
O=C1CCC/C(=N\NC(=O)NC2CCCCC2)C1,–,inactive: -5.53%
Cc1ccc(OCc2cc(C(=O)NC(C)Cc3cnccn3)no2)cc1C (stereo not drawn),"inconclusive [inhibitor, single point]",–
CCO/C=C1/C(=O)N(CC)c2ccccc21,"inconclusive [inhibitor, single point]",–
COc1ccc(CNCc2ccc3c(c2)n(C)c(=O)n3C)cc1,"inconclusive [inhibitor, single point]",–
CCCNC(=O)c1csc2c1CCCCC2,"inconclusive [inhibitor, partial curve]",–
Cc1ccc(S(=O)(=O)N(C)C(C)CCc2ccco2)cc1 (stereo not drawn),"inconclusive [inhibitor, single point]",–
COc1ccc(C2(C)NC(=O)N(CC3CCCCC3)C2=O)cc1 (stereo not drawn),–,inactive: -7.18%
CC(=O)c1c(Nc2cccc(F)c2)oc(C)cc1=O,–,inactive: 18.9%
COc1ccc(C(=O)OCC(=O)c2ccc(Cl)s2)c(OC)c1OC,–,inconclusive: -30.3% [inhibitor]
CC(C(=O)Nc1ccc(Br)cc1)N(C)CC(=O)NCc1ccco1 (stereo not drawn),"inconclusive [inhibitor, single point]",–
Cc1ccc(C(=O)c2ccccc2C(=O)OCC(=O)NCC2CCCO2)cc1 (stereo not drawn),"inconclusive [inhibitor, single point]",–
CC(C)(C)C(=O)N1CCN(c2ncnc3scc(-c4ccccc4)c23)CC1,"inconclusive [inhibitor, single point]",–
Cc1ccc2nc(-c3ccc(NC(=O)C(F)(F)F)cc3)sc2c1,"inconclusive [inhibitor, single point]",–
CCCSC1=C(C#N)C2(CCCCC2)C(C#N)=C(N)N1,"inconclusive [inhibitor, partial curve]",–
Cc1nc2c(c(C)nn2-c2ccccc2)c(C)c1CCC(=O)Nc1ccc(F)cc1,active: 18.4 µM,–
COc1cc(Nc2nc(SCc3cccc(Cl)c3)nc3ccccc23)cc(OC)c1,"inconclusive [inhibitor, single point]",–
CCC(CC)C(=O)OCC(=O)NC12CC3CC(CC(C3)C1)C2,–,inactive: -24.8%
CC(=O)Nc1ccc(S(=O)(=O)NC(C)C(=O)OCC(=O)NC2CCCC2)cc1 (stereo not drawn),–,inactive: -5.16%
CCOC(=O)/C(=N/Nc1ccc(OC)cc1)N1CCCc2ccccc21,"inconclusive [inhibitor, partial curve]",–
